Experimental data from PubChem BioAssay AID493208 (National Center for Advancing Translational Sciences (NCATS), 2011).
The campaign covered roughly 44,000 compounds. About 340 (0.77%) were called active. Not shown: some 5% with an inconclusive outcome. Calls come from the whole dose curve; as a rule, active = well fitted inhibition curve with a large enough effect; inconclusive = small, poorly fitted or top-dose-only effect; inactive = flat fitted curve, though single readings scatter. This is one part of the list.

Experiment: Acumen qHTS Assay for Inhibitors of the mTORC1 Signaling Pathway in MEF (Tsc2-/-, p53-/-) Cells: Sytravon;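 note: plate controls were DMSO for no effect and rapamycin for full effect; nearly all actives have a fitted effect of over 50% in size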
Conditions: phospho-rpS6 immunofluorescence/PI, 24 h; series mostly up to 38.3 µM; activity change, negative = inhibition: at the top concentration
How it was run: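 Cell-based qHTS: Tsc2-/- p53-/- MEF, 24 h cpd, 37 °C; fix/perm, anti-phospho-S6 Alexa-488 + PI; Acumen 488 nm scan; pS6/PI ratio, % positive cells; rapamycin 7.5 nM = inhibition ref; PI count = viability.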

Activity change, negative = inhibition, inactive:
Nc1c(-c2nc(-c3ccccc3)no2)nnn1CC(=O)Nc1cccc(F)c1 -10.3%, CCN(CC)CCN(C(=O)c1ccco1)c1nc2cc(C)cc(C)c2s1 -0.665%, CC(=O)c1ccc(NC(=O)CN(C)S(=O)(=O)c2cc3c(cc2Cl)NC(=O)CO3)cc1 -1.21%, N#Cc1c(-n2ncnc2-c2ccccc2C(F)(F)F)sc2c1CCCCC2 1.87%, Cc1ccc(NCc2cccn2-c2nnc(N3CCC(C(=O)NCCC(C)C)CC3)s2)cc1 -7.47%, CCOC(=O)c1ccc(Nc2c(-c3cccc(O)c3)nc3nc[nH]n23)cc1 -2.49%, COc1cc(NC(=O)CNS(=O)(=O)c2cccs2)cc(OC)c1OC 3.95%, CC1CCC(NC(=O)c2ccc(CS(=O)(=O)c3cccc(C(F)(F)F)c3)o2)CC1 (stereo unspecified) -6.37%, O=C(NCc1cccs1)c1ccc(CSc2nc3ccncc3n2Cc2ccccc2)cc1 -7.19%, CCOc1ccc(S(=O)(=O)NCCc2csc3nc(-c4ccc(F)cc4)nn23)cc1 -18.7%, COc1cccc(C2=NS(=O)(=O)N(C)C(C(=O)Nc3ccccc3SC)=C2)c1 -0.603%, Cc1ccc(C)c(Cn2c(=O)n(Cc3ccccc3)c(=O)c3c2c2cc(C)ccc2n3C)c1 -0.74%, CCOC(=O)c1ccc(NC(=O)Cn2c(=O)cc(C(F)(F)F)c3c(C)nn(C)c32)cc1 5.77%, Cc1ccc(C(=O)Nc2ccc(S(=O)(=O)Nc3onc(C)c3C)cc2)cc1 -2.29%, Cc1ccc(Cl)cc1N1CCN(CCCNC(=O)C2COc3ccccc3C2)CC1 (stereo unspecified) -7.06%, Fc1ccc(CSc2nc(NCc3ccccc3)c3ccccc3n2)cc1 -18.5%, COc1ccc(CNC(=O)Cn2c(=O)cc(C)c3c(C)nn(-c4cccc(Cl)c4C)c32)cc1 2.64%, COc1ccc(C(=O)NCCn2cc(SC(C)c3ccccc3)c3ccccc32)cc1OC (stereo unspecified) -0.161%, Cc1ccc(N(C)C(=O)CCS(=O)(=O)c2cc3c(cc2Cl)NC(=O)CO3)cc1 4.39%, COc1cc(NC(=O)NCCN2CCN(c3ccccc3)CC2)cc(OC)c1OC -0.412%, Cc1cc(C)c(S(=O)(=O)Nc2ccc(-c3ccc(N4CCCCCC4)nn3)cc2)cc1C -0.126%, CCN(CC)c1ccc2cc(-c3nc(-c4ccccc4F)no3)c(=O)oc2c1 -7.99%, Cc1cccc(NC(=O)CSc2nc3c(sc4ccccc43)c(=O)n2CCCC(=O)NC2CCCC2)c1 -11.4%, Cc1cccc(C(=O)Nc2ccc(S(=O)(=O)N(Cc3ccccc3)c3ccccc3)cc2)c1 -5.63%, CCc1ccc(NC(=O)Nc2nnc(N(C)C3CCCCC3)s2)cc1 2.22%, O=C(Nc1cccc(C(F)(F)F)c1)c1ccc2snnc2c1 0.0529%, CC(=O)c1ccc(NC(=O)Cn2c(=O)nc(-c3ccccc3)c3cc(Cl)ccc32)cc1 0%, CCC(C)NC(=O)CSc1nc2cc3c(cc2c(=O)n1Cc1ccc(C(=O)NCCc2ccc(OC)c(OC)c2)cc1)OCO3 (stereo unspecified) -1.38%, Cc1cccc(N2CCN(C(=O)C3CCN(c4ncnc5c4nc4n5CCCCC4)CC3)CC2)c1C -6.16%, CCOC(=O)C1CCCN(c2ncnc3c2nnn3C)C1 (stereo unspecified) 0.0183%, COc1cccc(NC(=O)c2oc3ccccc3c2NC(=O)c2cc3ccccc3o2)c1 -2.22%, Cc1nc2ccn(Cc3cccnc3)c(=O)c2cc1C(=O)Nc1ccc(F)cc1F -12.1%, COCCCNC(=O)c1ccc(C)c(-n2c(C)nc3cccnc32)c1 -1.43%, COCCn1c(SCC(=O)c2c[nH]c3ccccc23)nc2cc(C(=O)NC(C)C)ccc2c1=O 9.05%, O=S(=O)(Nc1ccc(F)cc1F)c1ccc(-n2cccn2)cc1 -0.0369%, CCOc1ccc(-c2nnc(SCC(=O)c3ccc(Br)cc3)n2-c2ccccc2)cc1 -12.6%, O=C(CN1C(=O)CCc2cc(S(=O)(=O)N3CCOCC3)ccc21)NCc1ccc(Cl)cc1 -4.76%, CCOc1ccc(CCNC(=O)c2cc3c(s2)-c2c(C)cccc2OC3)cc1 0.502%, Cc1ccc(NC(=O)CSc2nnc(-c3ccc(Br)cc3)o2)c(C)c1 1.98%, Cc1ccc(OCC(=O)Nc2ccc3nc(SCCOc4ccccc4)sc3c2)cc1 0.11%, CCOC(=O)Cn1c(=O)oc2cc(S(=O)(=O)N3CCC(C(=O)OCC)CC3)ccc21 -1.74%, COc1ccc(NC(=O)Cn2nnc3sc4c(c3c2=O)CCCC4)cc1 -6.99%, Cc1ccc(NC(=O)CN2C(=O)COc3ccc(S(=O)(=O)Nc4ccccc4)cc32)c(C)c1 1%, COc1ccc(CNC(=O)c2ccc3nc(C(C)C)oc3c2)cc1OC 0%, Cc1cc(C)c(NC(=O)CSc2nc3ccncc3[nH]2)c(C)c1 -5.37%, Cc1ccc(C2=NC(c3ccccc3)=Nc3ccc(Cl)cc3N2)cc1 0.485%, COC(=O)c1cc2oc3ccccc3c2n1Cc1c(C)cc(C)cc1C -8.79%, CCc1ccc(NC(=O)CCc2nnc3n(C)c(=O)c4sccc4n23)cc1 6.42%, COCCCNC(=O)CSc1nc(-c2ccc(OC)c(OC)c2)[nH]c1-c1ccc(F)cc1 -8%, Cc1cc(C)c2c(=O)cc(C(=O)NCc3ccc(S(N)(=O)=O)cc3)oc2c1 7.1%, Cc1cc(C)cc(NC(=O)Cn2c(=O)n(Cc3ccco3)c(=O)c3oc4ccccc4c32)c1 -10.9%, COc1cc2ccccc2cc1C(=O)Nc1cccc(-c2nc3cc(C)ccc3o2)c1C 9.15%, Cc1nn2c(=O)cc(COC(=O)COc3ccc(F)cc3)nc2s1 2.57%, Cc1cccc(NC(=O)C2CCCN(S(=O)(=O)c3ccc(Br)s3)C2)c1 (stereo unspecified) 1.76%, Cc1nc2cccnc2n1-c1cccc(C(=O)NCCc2ccc(S(N)(=O)=O)cc2)c1 0.838%, COc1ccc(NC(=O)CSc2nnc3scc(-c4ccc(Cl)cc4)n23)cc1 -2.75%, CCOC(=O)c1c(C)c(-c2ccccc2)n(CC(=O)Nc2cccc(F)c2)c1C 1.26%, Cn1nnnc1SCCNCc1ccc(OCc2ccccc2)cc1 -2.29%, COC(=O)c1sccc1S(=O)(=O)N(CC(=O)NCc1ccccc1)c1ccc(C)c(C)c1 -4.87%, Cc1cccc(NC(=O)CN2C(=O)COc3ccc(S(=O)(=O)N4CCC(C)CC4)cc32)c1C 0.254%, CCN(CC)CCCNC(=O)c1nn(-c2ccc(OC)c(Cl)c2)c(=O)c2c1c1ccccc1n2C 0.618%, CCOc1ccc(NC(=O)CCS(=O)(=O)c2ccc(Br)s2)cc1 -4.97%, Cc1ccc(S(=O)(=O)N(CC(=O)N2CCc3ccccc3C2)c2ccc(C)c(C)c2)cc1 9.27%, Cc1ccc(CNC(=O)Cn2c(=O)n(-c3ccc(C)c(F)c3)c(=O)c3sc4ccccc4c32)cc1 -6.02%, O=C(Nc1noc2ccccc12)c1c(F)cccc1F -1.51%, Cc1cccc(-c2nc(CCNC(=O)c3ccccc3Br)cs2)c1 -16.3%, CCOC(=O)c1ccccc1NC(=O)N1CCCN(S(=O)(=O)c2ccc3c(ccn3CC)c2)CC1 -16.5%, CCc1ccc(CNC(=O)C2CCCN(c3nn4cc(-c5ccc(F)cc5)nc4s3)C2)cc1 (stereo unspecified) -3.67%, O=C(Nc1cc(F)ccc1F)c1ccc2c(c1)nnn2C1CCCC1 1.59%, CCOc1ccc(-c2nc3c(C#N)c[nH]n3c2NC2CCCCC2)cc1 1.54%, CCOC(=O)C1CCN(C(=O)C2CCN(c3nnc(C)c4c(C)n(-c5ccccc5)nc34)CC2)CC1 -5.34%, Cc1nn(CC(=O)NCc2ccccc2Cl)c(=O)c2cccn12 -4.76%, CCCC(=O)Nc1cc(C(=O)NCc2ccc(OC)cc2)ccc1S(=O)(=O)c1ccc(Cl)cc1 -9.43%, COc1ccc(-c2cc(OC(=O)c3ccc(F)cc3)c3c(C)oc(C)c3c(=O)c2)cc1OC -0.842%, Cc1ccc(Cc2c(C)nn(-c3nc(C)c(C(=O)N4CCCCC4C)s3)c2C)cc1 (stereo unspecified) -4.59%, COc1ccc(-c2noc(CSc3nnc(-c4ccccc4)n3-c3ccc(F)cc3)n2)c(OC)c1 -0.927%, COc1ccc(NC(=O)C2CCCN(S(=O)(=O)c3c(C)n[nH]c3C)C2)cc1OC (stereo unspecified) -7.75%, Cc1cccc(NC(=O)CN2c3ccccc3S(=O)(=O)c3ccccc32)c1C -13.3%, CCc1nn(CC(=O)NCc2ccc(OC)cc2OC)c(=O)c2cc3c(OC)cccc3n12 0.435%, CCC(=O)N1CCc2cc(S(=O)(=O)NC(C(=O)NCCc3ccc(Cl)cc3)C(C)C)ccc21 (stereo unspecified) 0.0834%, Cc1ccc(C)c(N2CCN(c3nccn4nc(-c5ccc(Br)cc5)cc34)CC2)c1 13.4%, Cc1ccc(Cl)cc1NC(=O)C(NS(=O)(=O)c1cccc2nsnc12)c1ccccc1 (stereo unspecified) 5.08%, COc1ccc(NC(=O)C2CCCN(S(=O)(=O)c3ccc(Cl)cc3)C2)cc1 (stereo unspecified) -0.835%, O=C(COCc1cc(-c2cccs2)on1)NCc1ccccc1Cl -3.06%, Cc1nc2nc(NC(=O)c3ccc(F)cc3)[nH]n2c(=O)c1Cc1ccccc1 -7.53%, COc1cc(C2c3c(oc4ccccc4c3=O)C(=O)N2c2nc(C)c(C)s2)ccc1O (stereo unspecified) 11%, O=C(NCc1ccccc1F)C1CCN(Cc2cc3ccccc3n2Cc2cccc(Cl)c2)CC1 -12.8%, Cc1cccn2c(=O)c(/C=C(\C#N)c3nc4ccccc4s3)c(Oc3ccc(Br)cc3)nc12 -7.69%, Cn1c(=O)oc2cc(S(=O)(=O)CCC(=O)NCCc3ccccc3)ccc21 -1.47%, Cc1ccccc1NC(=O)Nc1ccc2nc(N3CCN(C)CC3)cc(C)c2c1 -3.03%, CC(=O)c1cc(-c2ccc(F)cc2)n(CC(=O)NC(C)c2ccccc2)c1C (stereo unspecified) -0.207%, COc1cccc(C(=O)NC(=O)Nc2ccc(-n3nc(C(F)(F)F)cc3C(F)(F)F)cc2)c1 -14.1%, COc1ccc(CNCc2ccc3c(c2)n(C)c(=O)n3C)cc1 -9.08%, CC(=O)c1ccc(NC(=O)C2=CC(c3cccs3)=NS(=O)(=O)N2C)cc1 -5.47%, COc1cc(Nc2nc(SCc3cccc(Cl)c3)nc3ccccc23)cc(OC)c1 1.83%, Cc1nc2c(c(C)nn2-c2ccccc2)c(C)c1CCC(=O)Nc1ccc(F)cc1 0.985%
